These results are taken from article PMC4336329 (PLoS ONE, 2015).

Out of some 310,000 compounds screened, about 2,200 (0.71%) showed an effect of 50% or more. Effects have a minus sign here. The list shows a part of the results.

Sequence of human ether-à-go-go-related gene (hERG) potassium channel (Q12809 whole entry, looked up): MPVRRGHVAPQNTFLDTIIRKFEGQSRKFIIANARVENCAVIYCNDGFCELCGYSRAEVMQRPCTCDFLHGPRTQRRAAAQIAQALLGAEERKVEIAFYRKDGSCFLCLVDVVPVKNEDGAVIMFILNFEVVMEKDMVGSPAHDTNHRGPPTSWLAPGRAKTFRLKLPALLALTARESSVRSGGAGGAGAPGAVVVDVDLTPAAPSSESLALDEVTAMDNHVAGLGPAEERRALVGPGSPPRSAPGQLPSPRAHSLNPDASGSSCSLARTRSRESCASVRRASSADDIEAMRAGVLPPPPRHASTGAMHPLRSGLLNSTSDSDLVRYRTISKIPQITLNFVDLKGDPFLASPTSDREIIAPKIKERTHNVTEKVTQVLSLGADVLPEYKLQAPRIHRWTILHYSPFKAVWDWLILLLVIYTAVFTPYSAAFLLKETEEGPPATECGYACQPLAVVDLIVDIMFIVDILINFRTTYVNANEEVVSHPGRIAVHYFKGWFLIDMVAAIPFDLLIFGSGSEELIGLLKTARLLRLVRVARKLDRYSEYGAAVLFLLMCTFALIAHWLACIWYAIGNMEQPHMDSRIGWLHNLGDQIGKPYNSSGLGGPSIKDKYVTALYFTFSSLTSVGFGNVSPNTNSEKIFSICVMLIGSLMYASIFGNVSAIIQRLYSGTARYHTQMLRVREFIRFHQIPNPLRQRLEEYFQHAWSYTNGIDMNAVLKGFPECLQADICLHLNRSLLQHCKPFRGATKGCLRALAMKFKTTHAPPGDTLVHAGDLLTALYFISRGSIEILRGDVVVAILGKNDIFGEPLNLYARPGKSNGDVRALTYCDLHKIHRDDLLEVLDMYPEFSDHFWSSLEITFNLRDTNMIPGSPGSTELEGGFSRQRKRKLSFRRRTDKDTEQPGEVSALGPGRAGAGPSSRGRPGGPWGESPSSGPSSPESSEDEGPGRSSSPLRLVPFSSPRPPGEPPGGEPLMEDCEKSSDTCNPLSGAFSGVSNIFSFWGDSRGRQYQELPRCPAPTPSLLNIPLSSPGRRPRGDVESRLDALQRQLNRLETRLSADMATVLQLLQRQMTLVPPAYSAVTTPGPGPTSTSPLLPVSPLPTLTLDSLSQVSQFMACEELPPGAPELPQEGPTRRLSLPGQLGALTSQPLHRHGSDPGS

This assay addresses human ether-à-go-go-related gene (hERG) potassium channel (human, UniProt Q12809). The experiment in a line: primary screen, population patch clamp on CHO cells stably expressing hERG.
For `S=C(Nc1ccc(Cl)cc1Cl)NC1CCCCC1`, the “hERG current change (%, negative = inhibition) at 1uM” value is given as 9.91%. In the case of `S=c1nc(-c2ccccc2)n(CCN2CCOCC2)c2c1CCCC2`, the “hERG current change (%, negative = inhibition) at 1uM” value is -4.85%. Consider `C/C(=N\NC(=O)CSc1ncccn1)c1ccc2c(c1)OCCO2`, for which the “hERG current change (%, negative = inhibition) at 1uM” value was 14.9%.

In the case of `CCC(C)NC(=O)c1cc(Sc2nnc(C)s2)nc2ccccc12` (stereo not shown), the “hERG current change (%, negative = inhibition) at 1uM” value was determined as 12%. As for `COc1cccc(/C=N/NC(=O)c2ccc(-c3ccccc3)cc2)c1O`, the “hERG current change (%, negative = inhibition) at 1uM” value is 5.03%. As for `C=CCN=C(C)C1=C(O)CCC1=O`, the “hERG current change (%, negative = inhibition) at 1uM” value stood at 15.5%.

Turning to `Cc1csc2nc(CNS(=O)(=O)c3ccc4c(c3)CCCC4)cn12`, the “hERG current change (%, negative = inhibition) at 1uM” value turned out to be 7.63%. `CCN(CC)S(=O)(=O)c1ccc(-c2nnc(SCc3nnc(-c4ccc(C)cc4)o3)o2)cc1`: the “hERG current change (%, negative = inhibition) at 1uM” value turned out to be 12.2%.

Regarding `COc1cc2ccccc2c2c1CCCC2=O`, the “hERG current change (%, negative = inhibition) at 1uM” value stood at 17%. Next, `O=[N+]([O-])c1cnccc1Nc1ccc(F)cc1`: 4.8%; `CC(C)Cc1nc(Nc2ccc(S(=O)(=O)N3CCCC3)cc2)c2nnn(Cc3ccccc3)c2n1`: 5.97%; `CCn1c(SCc2ccc(C)cc2)nnc1C1CCN(S(=O)(=O)c2ccc(OC)cc2)CC1`: -5.14%. The result for `CC1CCCCC12NC(=O)N(CC(=O)Nc1ccc3c(c1)OCCCO3)C2=O` (stereo not shown) reads 2.21%. `O=C(/C=C/c1c(F)cccc1Cl)N1CCc2ccccc2C1`: the “hERG current change (%, negative = inhibition) at 1uM” value is given as 13.7%.

Consider `CN(C)C(CNC(=O)c1ccc(S(=O)(=O)NCc2ccco2)cc1)c1ccccc1` (stereo not shown), for which the “hERG current change (%, negative = inhibition) at 1uM” value is listed as 12.3%. As for `CC(C)NC(=O)C(c1ccc(F)cc1)N(C(=O)CCC(=O)Nc1ccccn1)C1CCCC1` (stereo not shown), the “hERG current change (%, negative = inhibition) at 1uM” value is given as 16.7%. The result for `COc1ccc(N(Cc2cc3ccc(C)cc3[nH]c2=O)C(=O)c2ccco2)cc1` reads 15.6%; that for `COc1ccc([N+](=O)[O-])cc1NC(=O)c1ccc(CN(c2ccc(C)c(C)c2)S(C)(=O)=O)cc1`, 12%; that for `Cc1[nH]n(C2=NCCS2)c(=O)c1N=Nc1ccccc1`, 18%. For `Cc1nn(-c2ccccc2)c(C)c1NC(=O)COC(=O)Cc1cccc(C(F)(F)F)c1`, the “hERG current change (%, negative = inhibition) at 1uM” value is -1.04%.

Turning to `CCN1CCN(C(c2cccs2)C(C)NC(=O)Oc2ccccc2)CC1` (stereo not shown), the “hERG current change (%, negative = inhibition) at 1uM” value is -24.6%. The result for `O=C(COc1coc(CN2CCN(c3ccccc3F)CC2)cc1=O)N1CCc2ccccc21` reads -1.09%. On to `O=C(Cn1cc2c(n1)CCCC2)N1CCOCC1`, for which the “hERG current change (%, negative = inhibition) at 1uM” value was 6.4%. For `COc1ccc(-c2[nH]nc3c2C2(C(=O)N(CC(=O)O)c4ccccc42)C(C#N)=C(N)O3)cc1OC` (stereo not shown), the “hERG current change (%, negative = inhibition) at 1uM” value came to 12.4%. Next, `Cc1cc2cc(CN(Cc3cccs3)C(=S)NCc3ccco3)c(=O)[nH]c2cc1C`: -3.92%.

Consider `COC(=O)C1CCN(S(=O)(=O)c2cn(C)c(=O)n(C)c2=O)CC1`, for which the “hERG current change (%, negative = inhibition) at 1uM” value worked out at 27.8%.

As for `COc1cc(OC)c(C(=O)NCCCn2ccnc2)cc1OC.Cl`, the “hERG current change (%, negative = inhibition) at 1uM” value worked out at 7.95%. As to `O=C(CCN1C(=O)c2ccccc2C1=O)Nc1ccccc1C(=O)N1CCOCC1`, the “hERG current change (%, negative = inhibition) at 1uM” value was 3.05%. The result for `CC(=O)c1cccc(NC(=O)CC2Oc3ccc(C)cc3NC2=O)c1` (stereo not shown) reads 5.49%; that for `CCCC12CN3CC(C)(CN(C1)C3c1ccc([N+](=O)[O-])o1)C2=O` (stereo not shown), 5.7%. Next, `O=C(c1ccccc1)N1N=C(c2ccccc2O)CC1c1ccc(Br)cc1` (stereo not shown): 21.1%. With `Cc1ccc(C(=O)NCC(=O)OC(C)C(=O)NC2CCCc3ccccc32)cc1` (stereo not shown), the “hERG current change (%, negative = inhibition) at 1uM” value is listed as 2.54%. The result for `CC(C(=O)O)N1C(=O)C2C3c4ccccc4C(c4ccccc43)[C@@H]2C1=O` (stereo partly shown) reads 20.6%; that for `O=C(COC(=O)Cc1ccsc1)NC1CCCCCC1`, -4.66%.

For `CC(C)=CC(=O)Nc1ccc(Cl)cc1`, the “hERG current change (%, negative = inhibition) at 1uM” value is -4.15%. The result for `COc1ccc(NC(=O)C2=NN(C3CCS(=O)(=O)C3)C(=O)CC2)cn1` (stereo not shown) reads 16.7%.

Turning to `CC(Sc1nc(-c2ccccc2)cc(C(F)(F)F)n1)C(=O)Nc1ccc2c(c1)OCO2` (stereo not shown), the “hERG current change (%, negative = inhibition) at 1uM” value was determined as 8%. On to `O=C(COc1ccc(Cl)cc1)NCc1nnc(SCC(=O)N2CCCc3ccccc32)o1`, for which the “hERG current change (%, negative = inhibition) at 1uM” value is 0.965%. The result for `O=C(O)c1c2c(nc3ccccc13)-c1ccccc1CC2` reads 14.4%; that for `CCOc1ccccc1C(=O)Nc1ccc2nc(N3CCN(c4ncccn4)CC3)cc(C)c2c1`, 4.48%. Next, `CCS(=O)(=O)N1CCC(C(=O)N2CCN(c3ccccc3)CC2)CC1`: 5.11%; `COCc1cc(=O)n2[nH]c(N)nc2n1`: 10.8%; `O=C(CSCc1ccc(Br)cc1)N1CCCC1`: 11.4%.
